# Test results reported in the supplement of paper PMC8728848.
# The other results are listed elsewhere or left out.
# B1: MAL-II (Maackia amurensis), P93248 (protein)
# chain: ATSNSKPTQVLLATFLTFFFLLLNNVNSSDELSFTINNFVPNEADLLFQGEASVSSTGVLQLTRVENGQPQQYSVGRALYAAPVRIWDNTTGSVASFSTSFTFVVKAPNPTITSDGLAFFLAPPDSQIPSGRVSKYLGLFNNSNSDSSNQIVAVEFDTYFGHSYDPWDPNYRHIGIDVNGIESIKTVQWDWINGGVAFATITYLAPNKTLIASLVYPSNQTSFIVAASVDLKEILPEWVRVGFSAATGYPTQVETHDVLSWSFTSTLEANSDAATENNVHIARYTA
# Tests used:
# Experiment in all cases: glycan array binding signal (z-score within array); higher = stronger binding
# Conditions in all cases: glycan notation: IUPAC condensed, linker removed
# Kdn(a2-3)Gal(b1-3)GalNAc = target: Kdn(a2-3)Gal(b1-3)GalNAc
# Outline: (§1)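 Glycan array binding is given as a within-array Z-score, which can be read as non-binding when negative. The arrays, 3228 of them, came from the Consortium for Functional Glycomics database and were retained only where the protein sequence was available. Z-scores were averaged across arrays of the same protein sequence at different concentrations or buffers and across linkers.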
# Kdn(a2-3)Gal(b1-3)GlcNAc = target: Kdn(a2-3)Gal(b1-3)GlcNAc
# Outline: as §1
# Kdn(a2-3)Gal(b1-4)Glc = target: Kdn(a2-3)Gal(b1-4)Glc
# Outline: as §1
# Kdn(a2-3)Gal(b1-4)GlcNAc = target: Kdn(a2-3)Gal(b1-4)GlcNAc
# Outline: as §1
# [1] = target: Kdn(a2-3)Gal(b1-4)[Fuc(a1-3)]GlcNAc
# Outline: as §1
# Kdn(a2-6)Gal(b1-4)GlcNAc = target: Kdn(a2-6)Gal(b1-4)GlcNAc
# Outline: as §1
# [2] = target: Man(a1-2)Man(a1-2)Man(a1-3)Man
# Outline: as §1
# [3] = target: Man(a1-2)Man(a1-2)Man(a1-6)[Man(a1-3)]Man
# Outline: as §1
# Man(a1-2)Man(a1-3)Man = target: Man(a1-2)Man(a1-3)Man
# Outline: as §1
# [4] = target: Man(a1-2)Man(a1-3)[Man(a1-2)Man(a1-6)]Man
# Outline: as §1
# [5] = target: Man(a1-2)Man(a1-3)[Man(a1-2)Man(a1-6)]Man(a1-6)[Man(a1-2)Man(a1-2)Man(a1-3)]Man
# Outline: as §1
# [6] = target: Man(a1-2)Man(a1-3)[Man(a1-2)Man(a1-6)]Man(a1-6)[Man(a1-2)Man(a1-2)Man(a1-3)]Man(b1-4)GlcNAc(b1-4)GlcNAc
# Outline: as §1
# [7] = target: Man(a1-2)Man(a1-3)[Man(a1-6)]Man(a1-6)[Man(a1-2)Man(a1-3)]Man(b1-4)GlcNAc(b1-4)GlcNAc
# Outline: as §1
# [8] = target: Man(a1-2)Man(a1-6)[Man(a1-3)]Man(a1-6)[Man(a1-2)Man(a1-2)Man(a1-3)]Man
# Outline: as §1
# [9] = target: Man(a1-2)Man(a1-6)[Man(a1-3)]Man(a1-6)[Man(a1-2)Man(a1-2)Man(a1-3)]Man(b1-4)GlcNAc(b1-4)GlcNAc
# Outline: as §1
# Man(a1-3)[Man(a1-6)]Man = target: Man(a1-3)[Man(a1-6)]Man
# Outline: as §1
# [10] = target: Man(a1-3)[Man(a1-6)]Man(a1-6)[Man(a1-2)Man(a1-3)]Man(b1-4)GlcNAc(b1-4)GlcNAc
# Outline: as §1
# [11] = target: Man(a1-3)[Man(a1-6)]Man(a1-6)[Man(a1-3)]Man
# Outline: as §1
# [12] = target: Man(a1-3)[Man(a1-6)]Man(a1-6)[Man(a1-3)]Man(b1-4)GlcNAc(b1-4)GlcNAc
# Outline: as §1
# [13] = target: Man(a1-3)[Man(a1-6)]Man(b1-4)GlcNAc(b1-4)GlcNAc
# Outline: as §1
# [14] = target: Man(a1-3)[Man(a1-6)]Man(b1-4)GlcNAc(b1-4)[Fuc(a1-6)]GlcNAc
# Outline: as §1
# Man(a1-6)Man = target: Man(a1-6)Man
# Outline: as §1
# Man(b1-4)GlcNAc = target: Man(b1-4)GlcNAc
# Outline: as §1
# MurNAc(b1-4)GlcNAc = target: MurNAc(b1-4)GlcNAc
# Outline: as §1
# Neu5Ac(a2-3)Gal = target: Neu5Ac(a2-3)Gal
# Outline: as §1
# [15] = target: Neu5Ac(a2-3)Gal(b1-3)GalNAc
# Outline: as §1
# [16] = target: Neu5Ac(a2-3)Gal(b1-3)GalNAc(b1-3)Gal(a1-4)Gal(b1-4)Glc
# Outline: as §1
# [17] = target: Neu5Ac(a2-3)Gal(b1-3)GalNAc(b1-3)Gal(b1-4)GlcNAc
# Outline: as §1
# [18] = target: Neu5Ac(a2-3)Gal(b1-3)GalNAc(b1-4)[Neu5Ac(a2-3)]Gal(b1-4)Glc
# Outline: as §1
# [19] = target: Neu5Ac(a2-3)Gal(b1-3)GalNAc(b1-4)[Neu5Ac(a2-8)Neu5Ac(a2-3)]Gal(b1-4)Glc
# Outline: as §1
# [20] = target: Neu5Ac(a2-3)Gal(b1-3)GalNAc6S
# Outline: as §1
# [21] = target: Neu5Ac(a2-3)Gal(b1-3)GlcNAc
# Outline: as §1
# [22] = target: Neu5Ac(a2-3)Gal(b1-3)GlcNAc(b1-2)Man
# Outline: as §1
# [23] = target: Neu5Ac(a2-3)Gal(b1-3)GlcNAc(b1-2)Man(a1-3)[GlcNAc(b1-4)][Neu5Ac(a2-3)Gal(b1-3)GlcNAc(b1-2)Man(a1-6)]Man(b1-4)GlcNAc(b1-4)GlcNAc
# Outline: as §1
# [24] = target: Neu5Ac(a2-3)Gal(b1-3)GlcNAc(b1-2)Man(a1-3)[Neu5Ac(a2-3)Gal(b1-3)GlcNAc(b1-2)Man(a1-6)]Man(b1-4)GlcNAc(b1-4)GlcNAc
# Outline: as §1
# [25] = target: Neu5Ac(a2-3)Gal(b1-3)GlcNAc(b1-3)Gal(b1-3)GlcNAc
# Outline: as §1
# [26] = target: Neu5Ac(a2-3)Gal(b1-3)GlcNAc(b1-3)Gal(b1-4)GlcNAc
# Outline: as §1
# [27] = target: Neu5Ac(a2-3)Gal(b1-3)GlcNAc(b1-3)GalNAc
# Outline: as §1
binder,measurement,setting,value
B1,glycan array binding signal (z-score),Kdn(a2-3)Gal(b1-3)GalNAc,3.27
same,glycan array binding signal (z-score),Kdn(a2-3)Gal(b1-3)GlcNAc,-0.212
same,glycan array binding signal (z-score),Kdn(a2-3)Gal(b1-4)Glc,-0.171
same,glycan array binding signal (z-score),Kdn(a2-3)Gal(b1-4)GlcNAc,-0.166
same,glycan array binding signal (z-score),[1],0.01
same,glycan array binding signal (z-score),Kdn(a2-6)Gal(b1-4)GlcNAc,-0.005
same,glycan array binding signal (z-score),[2],-0.202
same,glycan array binding signal (z-score),[3],-0.1
same,glycan array binding signal (z-score),Man(a1-2)Man(a1-3)Man,-0.138
same,glycan array binding signal (z-score),[4],-0.221
same,glycan array binding signal (z-score),[5],-0.164
same,glycan array binding signal (z-score),[6],-0.125
same,glycan array binding signal (z-score),[7],-0.217
same,glycan array binding signal (z-score),[8],-0.175
same,glycan array binding signal (z-score),[9],-0.186
same,glycan array binding signal (z-score),Man(a1-3)[Man(a1-6)]Man,-0.124
same,glycan array binding signal (z-score),[10],-0.082
same,glycan array binding signal (z-score),[11],-0.133
same,glycan array binding signal (z-score),[12],-0.107
same,glycan array binding signal (z-score),[13],-0.165
same,glycan array binding signal (z-score),[14],-0.337
same,glycan array binding signal (z-score),Man(a1-6)Man,-0.203
same,glycan array binding signal (z-score),Man(b1-4)GlcNAc,-0.19
same,glycan array binding signal (z-score),MurNAc(b1-4)GlcNAc,-0.194
same,glycan array binding signal (z-score),Neu5Ac(a2-3)Gal,-0.204
same,glycan array binding signal (z-score),[15],3.54
same,glycan array binding signal (z-score),[16],-0.099
same,glycan array binding signal (z-score),[17],-0.199
same,glycan array binding signal (z-score),[18],0.331
same,glycan array binding signal (z-score),[19],-0.113
same,glycan array binding signal (z-score),[20],5.77
same,glycan array binding signal (z-score),[21],-0.139
same,glycan array binding signal (z-score),[22],0.033
same,glycan array binding signal (z-score),[23],-0.155
same,glycan array binding signal (z-score),[24],-0.073
same,glycan array binding signal (z-score),[25],-0.183
same,glycan array binding signal (z-score),[26],-0.189
same,glycan array binding signal (z-score),[27],-0.143
